# Reference: PubChem BioAssay AID485281 (National Center for Advancing Translational Sciences (NCATS), 2010)
# Several values for one entry are separate records, joined by “and”; a condition that tells them apart may be missing. Identical values can stand only once. Hit rate of the full screen: of about 350,000 compounds, about 260 (0.074%) were called active. Inconclusive means that the source gave no clear call. Such entries were picked first, then a sample of the others. Calls follow the shape of the dose curve; as a rule, active = well fitted inhibition curve with a large enough effect; inconclusive = small, poorly fitted or top-dose-only effect; inactive = no such curve, though single readings can be large or run the other way. Potencies of inconclusive entries are doubtful fits and often do not repeat.
# Biological target: Ferritin light chain (Equus caballus) (UniProt P02791)
# Sequence of UniProt P02791 (P02791 whole entry, looked up): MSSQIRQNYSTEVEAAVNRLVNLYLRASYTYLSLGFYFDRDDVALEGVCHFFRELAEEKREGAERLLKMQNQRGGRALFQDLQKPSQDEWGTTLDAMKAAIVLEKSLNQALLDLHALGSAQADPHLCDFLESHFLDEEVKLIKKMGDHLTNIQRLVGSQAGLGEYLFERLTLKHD
# Assay: qHTS Assay for Identification of Novel General Anesthetics; also: nearly all actives have a fitted effect of over 20% in size
# Conditions: apoferritin/1-aminoanthracene competitive binding, fluorescence; series mostly up to 77.5 µM
# Outline: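 Probe: 1-aminoanthracene (50% saturated, PBS). Protein: horse-spleen apoferritin, 10 uM. Incubation: 10 min, room temperature. Detection: 380 nm excitation, 535 nm emission. Analysis: normalized response, four-parameter Hill.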
# Potency is read from the fitted curve at half-maximal effect; tags tell the direction and shape of the fitted curve.
row,Structure (SMILES),Potency
1,Cc1csc2nc(COc3ccccc3NC(=O)c3ccco3)cc(=O)n12,inactive
2,CC(C)[C@H](NC(=O)c1ccccc1)C(=O)OCC(=O)c1ccccc1F,"inconclusive: 44.7 µM [inhibitor, partial curve]"
3,CCC(C)(C)C(=O)Nc1nnc(CCc2ccccc2)s1,"inconclusive: 28.2 µM [inhibitor, single point]"
4,CCOc1ccccc1NC(=O)COC(=O)c1cc(C(=O)OC)cc([N+](=O)[O-])c1,inactive
5,CC(C)(C)c1ccc(C(=O)N2CCCN(c3ccc([N+](=O)[O-])cn3)CC2)cc1,"inconclusive: 20 µM [inhibitor, partial curve]"
6,Cc1ccc(S(=O)(=O)Nc2cccc(C(=O)Nc3cc(C)ccn3)c2)cc1,"inconclusive: 35.5 µM [inhibitor, partial curve]"
7,CCn1c(=S)[nH]c2c(c1=O)C(C)(C)Cc1ccccc1-2,"inconclusive: 31.6 µM [inhibitor, partial curve]"
8,Cc1cnc(C(=O)OCC(=O)NC2CCCCC2)cn1,"inconclusive: 56.2 µM [inhibitor, single point]"
9,O=C(COC(=O)C1COc2ccccc2O1)Nc1cccc(S(=O)(=O)N2CCCCC2)c1 (stereo not drawn),"inconclusive: 14.1 µM [inhibitor, partial curve]"
10,Cc1cc(S(=O)(=O)Nc2ccc3cn[nH]c3c2)c(C)cc1Cl,"inconclusive: 50.1 µM [inhibitor, single point]"
11,Cc1ccc(OC(=O)c2cc(-c3ccc4c(c3)OCCO4)on2)cc1C,"inconclusive: 8.91 µM [inhibitor, partial curve]"
12,CCc1ccc(NS(=O)(=O)c2ccc3[nH]cc(C(=O)NCC4CCCO4)c(=O)c3c2)cc1 (stereo not drawn),"inconclusive: 39.8 µM [inhibitor, partial curve]"
13,Cc1ccc(C(C)C)c(OCC(=O)Nc2ccc(C(=O)OC3CCCCC3)cc2)c1,inactive
14,O=C(c1ccccc1)n1ccc2ccccc21,"inconclusive: 44.7 µM [inhibitor, partial curve]"
15,COCC(C)n1c(C)cc(C(=O)COC(=O)/C=C/c2cccc(F)c2)c1C (stereo not drawn),"inconclusive: 35.5 µM [inhibitor, single point]"
16,COc1cccc(C(=O)NC(=S)Nc2ccc(N3CCCC3)cc2)c1,"inconclusive: 22.4 µM [inhibitor, partial curve]"
17,O=C(N/N=C/c1cc(Br)c(Br)o1)c1cc2ccccc2o1,inactive
18,CC12CCC(C(=O)NCc3ccccc3Cl)(CC1=O)C2(C)C (stereo not drawn),"inconclusive: 31.6 µM [inhibitor, partial curve]"
19,Cc1cc(C)c(S(=O)(=O)N2CCN=C2c2ccccc2)cc1C,"inconclusive: 28.2 µM [inhibitor, single point]"
20,CCC(C)n1nccc1NC(=O)C(C)OC(=O)c1cc2ccccc2[nH]1 (stereo not drawn),"inconclusive: 39.8 µM [inhibitor, partial curve]"
21,Cn1c(=O)c2c(-c3ccccc3Cl)n(-c3cc(Cl)ccc3O)cc2n(C)c1=O,"inconclusive: 0.891 µM [inhibitor, full curve, poor fit]"
22,Cc1cc(Nc2cccc(C)c2C)n2cnnc2n1,"inconclusive: 39.8 µM [inhibitor, single point]"
23,C/C(=N/O)c1cc(C(C)(C)C)c(O)c(C(C)(C)C)c1,inactive

row,Structure (SMILES),Potency
1,Nc1cccc2nc3ccccc3cc12,inactive
2,COc1ccc2c(Cl)c(C(=O)NN)sc2c1,inactive
3,O=C(CN1C2=NCCN2c2ccccc21)C12CC3CC(CC(C3)C1)C2,"inconclusive: 25.1 µM [inhibitor, partial curve]"
4,Clc1ccccc1CSc1nnc(-c2ccncc2)o1,"inconclusive: 17.8 µM [inhibitor, partial curve]"
5,CN(C(=O)CSc1nnnn1-c1ccccc1)C1CCCCC1,"inconclusive: 35.5 µM [inhibitor, partial curve]"
6,CC(NC(=O)Cn1ncc(Cl)c(Cl)c1=O)C12CC3CC(CC(C3)C1)C2 (stereo not drawn),"inconclusive: 50.1 µM [inhibitor, single point]"
7,O=C(/C=C/c1ccc([N+](=O)[O-])cc1)N(c1ccccn1)C1CCCCC1,"inconclusive: 20 µM [inhibitor, partial curve]"
8,CCN(c1ccc(NC(=O)CSc2nnc3nc(C)cc(C)n23)cc1)C(C)C,"inconclusive: 20 µM [inhibitor, partial curve]"
9,C=CCNCCOc1ccc(C(C)(C)c2ccccc2)cc1,"inconclusive: 35.5 µM [inhibitor, single point]"
10,CNC(=S)N(Cc1ccc(OC)cc1)Cc1cc2cccc(C)c2[nH]c1=O,"inconclusive: 11.2 µM [inhibitor, partial curve]"
11,COCCN1C(=O)C(CC(=O)Nc2ccc(C(C)=O)cc2)SC1=Nc1ccccc1 (stereo not drawn),"inconclusive: 44.7 µM [inhibitor, partial curve]"
12,Cc1cccc(C)c1NC(=O)Cn1nc(-c2ccc(Cl)s2)ccc1=O,"inconclusive: 4.47 µM [inhibitor, full curve]"
13,CCSc1nc2ccccc2n1Cc1cccc([N+](=O)[O-])c1,"inconclusive: 31.6 µM [inhibitor, partial curve]"
14,Cc1cc(C)cc(OC(=O)CS(=O)c2ccc(C(F)(F)F)cc2[N+](=O)[O-])c1 (stereo not drawn),"inconclusive: 35.5 µM [inhibitor, partial curve]"
15,O=C(NCc1cccc(Cl)c1)c1cc(COc2ccc3ncccc3c2)on1,"inconclusive: 12.6 µM [inhibitor, partial curve]"
16,Cc1ccc(C(=O)n2nc(C)c(S(=O)(=O)N3CCOCC3)c2C)cc1,inactive
17,Cc1cc2nc(-c3ccc(SCC(=O)Nc4ccc5c(c4)OCCO5)nc3)[nH]c2cc1C,inactive
18,Cc1ccc(C(=O)N(CC(=O)NC2CCCC2)c2ccccc2C)s1,"inconclusive: 22.4 µM [inhibitor, partial curve]"
19,CCC(OC(=O)CCc1nc2ccccc2[nH]c1=O)C(=O)c1ccccc1 (stereo not drawn),"inconclusive: 28.2 µM [inhibitor, partial curve]"
20,CC1CCC(NC(=O)c2nc(Cn3ccc([N+](=O)[O-])n3)no2)CC1 (stereo not drawn),"inconclusive: 50.1 µM [inhibitor, single point]"
21,Cc1[nH]n(-c2cccc(Cl)c2)c(=O)c1C=NCc1ccco1,inactive
22,Cc1nc2c(sc3nc4c(cc32)COC(C)(C)C4)c(=O)n1CC(=O)NCc1ccco1,"inconclusive: 28.2 µM [inhibitor, partial curve]"
23,CC(Sc1nnc2c(n1)[nH]c1ccccc12)C(=O)N(C)C1CCCCC1 (stereo not drawn),"inconclusive: 50.1 µM [inhibitor, single point]"

row,Structure (SMILES),Potency
1,O=C1C(Nc2ccc(O)cc2)=C/C(=N/S(=O)(=O)c2cccs2)c2ccccc21,"inconclusive: 35.5 µM [inhibitor, partial curve]"
2,CCn1nc(C)c(/C=N/NC(=O)c2ccoc2C)c1C,inactive
3,O=C(O)C1Nc2c(O)cccc2C2C=CCC12 (stereo not drawn),inactive
4,Cn1c(-c2ccccc2)cnc1NCc1ccc(-c2ccccc2)cc1,"inconclusive: 50.1 µM [inhibitor, single point]"
5,CCN(CC)CCNC(=O)CSc1c2c(nc3cc(Cl)ccc13)CCCC2,inactive
6,CCC(=O)Nc1cc2c(C)cc(=O)oc2cc1C,inactive
7,O=C(Cc1c(O)c2ccccc2[nH]c1=O)NCc1ccccc1F,"inconclusive: 50.1 µM [inhibitor, single point]"
8,COc1cc2[nH]c(=S)nc(NCc3cccs3)c2cc1OC,"inconclusive: 35.5 µM [inhibitor, single point]"
9,CC(=O)c1ccc(C(=O)NC2CCCN(Cc3ccc(Cl)cc3)C2)s1 (stereo not drawn),"inconclusive: 28.2 µM [inhibitor, partial curve]"
10,CC(=O)c1cc(-c2ccc(F)cc2)n(CCC(=O)Nc2cccnc2)c1C,inactive
11,O=C(/C=C/Nc1ccc(Nc2ccccc2)cc1)c1cccs1,"inconclusive: 14.1 µM [inhibitor, partial curve]"
12,CNc1ccccc1C(=O)OC(C)C(=O)Nc1ccc(Cl)cn1 (stereo not drawn),inactive
13,O=C(Nc1nnc(CSCc2ccccc2F)s1)c1cccc([N+](=O)[O-])c1,"inconclusive: 22.4 µM [inhibitor, partial curve]"
14,O=C(NN=C1CCCCCC1)NC1CCCCC1,"inconclusive: 28.2 µM [inhibitor, partial curve]"
15,CCCN1C(=O)/C(=C/c2c(NCCCOC(C)C)nc3c(C)cccn3c2=O)SC1=S,inactive
16,Cc1cc(F)ccc1NCc1cc2c(cc1[N+](=O)[O-])OCO2,"inconclusive: 39.8 µM [inhibitor, single point]"
17,O=C(Nc1cccc(NC(=O)c2ccc(Br)o2)c1)c1ccccc1,"inconclusive: 22.4 µM [inhibitor, partial curve] and inconclusive: 25.1 µM [inhibitor, single point]"
18,Cc1cc(SCc2cccc(C(F)(F)F)c2)nc(=O)[nH]1,"inconclusive: 17.8 µM [inhibitor, partial curve]"
19,CCCCCOC(=O)C1[C@H]2C(=O)N(Cc3cccs3)C[C@]23C=C[C@H]1O3 (stereo partly drawn),"inconclusive: 50.1 µM [inhibitor, single point]"
20,N#CCCNS(=O)(=O)c1ccc(C(=O)OCC2CCCCC2)cc1,"inconclusive: 50.1 µM [inhibitor, single point]"
21,COc1cccc(OCCCn2ccnc2)c1,"inconclusive: 31.6 µM [inhibitor, partial curve]"
22,COc1ccc(CC(=O)NC(C)c2nnc(SCC(=O)c3ccc(Br)cc3)n2C)cc1 (stereo not drawn),"inconclusive: 15.8 µM [inhibitor, partial curve]"
